# Reference: patent publication US9833497B2, “Human originated EGF domain proteins and use of the same” (CHENGDU SOURCEBIO LIMITED-LIABILITY COMPANY, priority 2013, dated 2017)
# Tests used:
# Assay type in all cases: cell-based
# E. coli BL21 = experiment: MIC against Gram-negative bacteria: E. coli BL21; settings: E. coli BL21; for MIC (μg/mL) E. coli BL21 / MIC against E. coli BL21: 5×10^5 CFU/mL
# Protocol: (§1) 1. Gram-negative bacteria, such as E. coli BL21, Pseudomonas aeruginosa, Klebsiella pneumonia, Enterobacter cloacae, Aeromonas hydrophila, Citrobacter diversus, Moraxella catarrhalis, Proteus mirabilis, Proteus vulgaris, Serratia marcescens, etc were streaked on solid LB medium and cultured respectively. Then, typical clones were picked, inoculated into common liquid LB medium respectively, and cultured at 37° C. with shaking at 185 rpm until the McFarland specific turbidity was 0.5. The bacterial culture of each of Gram-negative bacteria was centrifuged at 4000×g for 3 min, the supernatant was discarded, and the thalli were resuspended with fresh LB medium.
# (§2) 2. The above-mentioned bacterial suspensions were diluted and inoculated into 96-well plates with the final concentration of the bacterial suspension being 5×10^5 CFU/mL per well.
# (§3) 3. Each of the purified human-originated EGF domain proteins (PRT1 to PRT1498 in Table 1) was added to each of the above wells and subjected to two-fold serial dilution in concentration. Three parallel wells were set up for each concentration in the gradient.
# (§4) 4. The above-mentioned 96-well plates were placed and cultured at 37° C. in shaking incubator shaking at 175 rpm. […] The minimal inhibitory concentration MIC is defined as the lowest concentration of the recombinant protein at which there is no growth of the bacteria.
# Aeromonas hydrophila = experiment: MIC against Gram-negative bacteria: Aeromonas hydrophila; settings: for MIC (μg/mL) A. hydrophila / MIC against A. hydrophila: 5×10^5 CFU/mL; for MIC against A. hydrophila: Aeromonas hydrophila
# Protocol: as §1, §2, §3, §4
# Klebsiella pneumonia = experiment: MIC against Gram-negative bacteria: Klebsiella pneumonia; settings: for MIC (μg/mL) K. pneumonia / MIC against K. pneumonia: 5×10^5 CFU/mL; for MIC against K. pneumonia: Klebsiella pneumonia
# Protocol: as §1, §2, §3, §4
# Serratia marcescens = experiment: MIC against Gram-negative bacteria: Serratia marcescens; settings: for MIC (μg/mL) S. marcescens / MIC against S. marcescens: 5×10^5 CFU/mL; for MIC against S. marcescens: Serratia marcescens
# Protocol: as §1, §2, §3, §4
# Enterobacter cloacae = experiment: MIC against Gram-negative bacteria: Enterobacter cloacae; settings: for MIC (μg/mL) E. cloacae / MIC against E. cloacae: 5×10^5 CFU/mL; for MIC against E. cloacae: Enterobacter cloacae
# Protocol: as §1, §2, §3, §4
# Proteus mirabilis = experiment: MIC against Gram-negative bacteria: Proteus mirabilis; settings: for MIC (μg/mL) P. mirabilis / MIC against P. mirabilis: 5×10^5 CFU/mL; for MIC against P. mirabilis: Proteus mirabilis
# Protocol: as §1, §2, §3, §4
# Proteus vulgaris = experiment: MIC against Gram-negative bacteria: Proteus vulgaris; settings: for MIC (μg/mL) P. vulgaris / MIC against P. vulgaris: 5×10^5 CFU/mL; for MIC against P. vulgaris: Proteus vulgaris
# Protocol: as §1, §2, §3, §4
# E. coli DH5α = experiment: Antibacterial activity: MIC and growth curve against E. coli DH5α in 96-well plate; settings: minimal inhibitory concentration against E. coli DH5α, 5×10^5 CFU/mL, 37° C., judged after 8 h
# Protocol: 1. E. coli DH5α was exemplified. E. coli DH5α was streaked and cultured on LB solid medium. Then, a typical clone was picked and inoculated into common LB liquid medium, cultured at 37° C. with shaking at 185 rpm until the logarithmic growth phase was reached (OD600 of about 0.5). The bacterial culture was centrifuged at 4000×g for 3 min, the supernatant was discarded, and the thalli were resuspended with fresh LB medium.
# 2. The above-mentioned bacterial suspension was diluted and inoculated into a 96-well plate with the total volume of 100 μL per well and a bacterial count of 5×10^5 CFU/mL.
# 3. The recombinant protein hF VII-EGF1 was added to the above-mentioned wells with the final protein concentration in the well of the highest protein concentration being 50 μg/mL. Basing on this final concentration, a two-fold serial dilution was performed till a protein concentration gradient consisting of 50, 25, and 12.5 μg/mL was set up. Three parallel wells were set up for each concentration in the gradient.
# as §4, with “plate was” for “plates were”, “rpm. Samples were taken every 30 min, the absorbance values were determined at 600 nm wavelength under a ultra violet spectrophotometer, and an inhibition curve was plotted.” for “rpm.”
# According to the experimental procedures in Example 14, the minimal inhibitory concentrations (MIC, μg/mL) of the other human-originated EGF domain proteins (PRT2 to PRT1498 in Table 1) for E. coli DH5α were determined.
# Pseudomonas aeruginosa = experiment: MIC against Gram-negative bacteria: Pseudomonas aeruginosa; settings: for MIC (μg/mL) P. aeruginosa / MIC against P. aeruginosa: 5×10^5 CFU/mL; for MIC against P. aeruginosa: Pseudomonas aeruginosa
# Protocol: as §1, §2, §3, §4
# Citrobacter diversus = experiment: MIC against Gram-negative bacteria: Citrobacter diversus; settings: for MIC (μg/mL) C. diversus / MIC against C. diversus: 5×10^5 CFU/mL; for MIC against C. diversus: Citrobacter diversus
# Protocol: as §1, §2, §3, §4
# Moraxella catarrhalis = experiment: MIC against Gram-negative bacteria: Moraxella catarrhalis; settings: for MIC (μg/mL) M. catarrhalis / MIC against M. catarrhalis: 5×10^5 CFU/mL; for MIC against M. catarrhalis: Moraxella catarrhalis
# Protocol: as §1, §2, §3, §4
# [1] = A. hydrophila, 10 h cultivation at 37° C.
# [2] = K. pneumonia, 10 h cultivation at 37° C.
# [3] = S. marcescens, 10 h cultivation at 37° C.
# [4] = E. cloacae, 10 h cultivation at 37° C.
# [5] = P. mirabilis, 10 h cultivation at 37° C.
# [6] = P. vulgaris, 10 h cultivation at 37° C.
# [7] = P. aeruginosa, 10 h cultivation at 37° C.
# [8] = C. diversus, 10 h cultivation at 37° C.
# [9] = M. catarrhalis, 10 h cultivation at 37° C.
substance,measurement,setting,value
PRT888 (DVDECSLGANPCEHAGKCINTLGSFECQCLQGYTGPRCE; listed as Homo sapiens),MIC (μg/mL) E. coli BL21,E. coli BL21; 10 h cultivation at 37° C.,50 µg/mL
same,MIC (μg/mL) A. hydrophila,Aeromonas hydrophila; [1],12.5 µg/mL
same,MIC (μg/mL) K. pneumonia,Klebsiella pneumonia; [2],50 µg/mL
same,MIC (μg/mL) S. marcescens,Serratia marcescens; [3],12.5 µg/mL
same,MIC (μg/mL) E. cloacae,Enterobacter cloacae; [4],25 µg/mL
same,MIC (μg/mL) P. mirabilis,Proteus mirabilis; [5],25 µg/mL
same,MIC (μg/mL) P. vulgaris,Proteus vulgaris; [6],25 µg/mL
same,MIC,E. coli DH5α,12.5 µg/mL
same,MIC (μg/mL) P. aeruginosa,Pseudomonas aeruginosa; [7],12.5 µg/mL
same,MIC (μg/mL) C. diversus,Citrobacter diversus; [8],25 µg/mL
same,MIC (μg/mL) M. catarrhalis,Moraxella catarrhalis; [9],12.5 µg/mL
PRT1245 (QGDECGIAVCEGNSTCSENEVCVRPGECRCRHGYFGANCD; listed as Homo sapiens),MIC against E. coli BL21,"E. coli BL21; 96-well plate, 37° C., 10 h",12.5 µg/mL
same,MIC against A. hydrophila,"Aeromonas hydrophila; 96-well plate, 37° C., 10 h",25 µg/mL
same,MIC against K. pneumonia,"Klebsiella pneumonia; 96-well plate, 37° C., 10 h",12.5 µg/mL
same,MIC against S. marcescens,"Serratia marcescens; 96-well plate, 37° C., 10 h",12.5 µg/mL
same,MIC against E. cloacae,"Enterobacter cloacae; 96-well plate, 37° C., 10 h",50 µg/mL
same,MIC against P. mirabilis,"Proteus mirabilis; 96-well plate, 37° C., 10 h",50 µg/mL
same,MIC against P. vulgaris,"Proteus vulgaris; 96-well plate, 37° C., 10 h",25 µg/mL
same,MIC,E. coli DH5α,50 µg/mL
same,MIC against P. aeruginosa,"Pseudomonas aeruginosa; 96-well plate, 37° C., 10 h",50 µg/mL
same,MIC against C. diversus,"Citrobacter diversus; 96-well plate, 37° C., 10 h",12.5 µg/mL
same,MIC against M. catarrhalis,"Moraxella catarrhalis; 96-well plate, 37° C., 10 h",25 µg/mL
PRT960 (DIDECQSSPCVNGGVCKDRVNGFSCTCPSGFSGSTCQ; listed as Homo sapiens),MIC,E. coli BL21; 10 h cultivation at 37° C.,50 µg/mL
same,MIC,Aeromonas hydrophila; [1],50 µg/mL
same,MIC,Klebsiella pneumonia; [2],12.5 µg/mL
same,MIC,Serratia marcescens; [3],12.5 µg/mL
same,MIC,Enterobacter cloacae; [4],25 µg/mL
same,MIC,Proteus mirabilis; [5],12.5 µg/mL
same,MIC,Proteus vulgaris; [6],25 µg/mL
same,MIC,E. coli DH5α,12.5 µg/mL
same,MIC,Pseudomonas aeruginosa; [7],25 µg/mL
same,MIC,Citrobacter diversus; [8],12.5 µg/mL
same,MIC,Moraxella catarrhalis; [9],12.5 µg/mL
PRT1435 (DIDECRNGACVPNSICVNTLGSYRCGPCKPGYTGDQIRGCK; listed as Homo sapiens),MIC against E. coli BL21,E. coli BL21; 10 h cultivation at 37° C.,25 µg/mL
same,MIC against A. hydrophila,Aeromonas hydrophila; 10 h cultivation at 37° C.,25 µg/mL
same,MIC against K. pneumonia,Klebsiella pneumonia; 10 h cultivation at 37° C.,25 µg/mL
same,MIC against S. marcescens,Serratia marcescens; 10 h cultivation at 37° C.,12.5 µg/mL
same,MIC against E. cloacae,Enterobacter cloacae; 10 h cultivation at 37° C.,50 µg/mL
same,MIC against P. mirabilis,Proteus mirabilis; 10 h cultivation at 37° C.,25 µg/mL
same,MIC against P. vulgaris,Proteus vulgaris; 10 h cultivation at 37° C.,12.5 µg/mL
same,MIC,E. coli DH5α,50 µg/mL
same,MIC against P. aeruginosa,Pseudomonas aeruginosa; 10 h cultivation at 37° C.,12.5 µg/mL
same,MIC against C. diversus,Citrobacter diversus; 10 h cultivation at 37° C.,12.5 µg/mL
same,MIC against M. catarrhalis,Moraxella catarrhalis; 10 h cultivation at 37° C.,50 µg/mL
PRT193 (GVHECAMQCHGRGVCNNRKNCHCEAHWAPPFCD; listed as Homo sapiens),MIC (μg/mL) E. coli BL21,E. coli BL21; 10 h cultivation at 37° C.,100 µg/mL
same,MIC (μg/mL) A. hydrophila,Aeromonas hydrophila; [1],12.5 µg/mL
same,MIC (μg/mL) K. pneumonia,Klebsiella pneumonia; [2],12.5 µg/mL
same,MIC (μg/mL) S. marcescens,Serratia marcescens; [3],25 µg/mL
same,MIC (μg/mL) E. cloacae,Enterobacter cloacae; [4],12.5 µg/mL
same,MIC (μg/mL) P. mirabilis,Proteus mirabilis; [5],25 µg/mL
same,MIC (μg/mL) P. vulgaris,Proteus vulgaris; [6],12.5 µg/mL
same,MIC,E. coli DH5α,50 µg/mL
same,MIC (μg/mL) P. aeruginosa,Pseudomonas aeruginosa; [7],50 µg/mL
same,MIC (μg/mL) C. diversus,Citrobacter diversus; [8],25 µg/mL
same,MIC (μg/mL) M. catarrhalis,Moraxella catarrhalis; [9],12.5 µg/mL
